Results from the supplement of paper PMC12217912.
The list shows a part of the results. The full chains were built here from the parent and the listed change. Values near 0.05 are background.

B1: TEV protease; numbered along this chain (parent)
chain: MGESLFKGPRDYNPISSSICHLTNESDGHTTSLYGIGFGPFIITNKHLFRRNNGTLVVQSLHGVFKVKDTTTLQQHLVDGRDMIIIRMPKDFPPFPQKLKFREPQREERICLVTTNFQTKSMSSMVSDTSCTFPSGDGIFWKHWIQTKDGQCGSPLVSTRDGFIVGIHSASNFTNTNNYFTSVPKNFMELLTNQEAQQWVSGWRLNADSVLWGGHKVFMVKPEEPFQPVKEATQL

Variants of: B1
Assay: raw area under fraction-flipped curve 0-4 h after induction (AUC4h, not background-subtracted), DNA-recorder readout of cleavage of the substrate (dimensionless); higher = more cleavage of the substrate by the protease variant
Settings: temperature: 34 °C; time window: 0-4 h after rhamnose induction
Description: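 In vivo DNA recorder in E. coli TOP10(DE3) ΔrhaA at 34 °C. Each TEVp single-site mutant (parent TEVp 0) is paired with a single-site variant of the 7-mer TEVs (canonical ENLYFQ|S). The substrate sits between flexible linkers in a Bxb1-sfGFP-TEVs-SsrA fusion, so cleavage stabilises Bxb1 and speeds flipping of a recombination array, read by NGS. The value is the raw area under the fraction-flipped curve over 0-4 h after rhamnose induction (AUC4h), with ≥20 reads per time point. It is not background-subtracted; inactive controls average about 0.047.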
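Also: Bxb1 expression induced with 0.2% (w/v) L-rhamnose at OD600 near 0.5, cultures sampled hourly, flipped fraction per protease–substrate barcode pair counted by paired-end Illumina sequencing.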

Row | Variant | area with substrate DNLYFQS | area with substrate GNLYFQS | area with substrate HNLYFQS | area with substrate KNLYFQS | area with substrate LNLYFQS | area with substrate NNLYFQS | area with substrate PNLYFQS | area with substrate QNLYFQS | area with substrate SNLYFQS | area with substrate TNLYFQS
1 | MGESLFKGPRDYNPISSSICHLTNESDGHTTSLYGIGFGPFIITNKHLFRRNNGTLVVQSLHGVFKVKDTTTLQQHLVDGRDMIIIRMPKDFPPFPQKLPFREPQREERICLVTTNFQTKSMSSMVSDTSCTFPSGDGIFWKHWIQTKDGQCGSPLVSTRDGFIVGIHSASNFTNTNNYFTSVPKNFMELLTNQEAQQWVSGWRLNADSVLWGGHKVFMVKPEEPFQPVKEATQL [K100P] | 0.103 | 0.0501 | 0.0505 | 0.0597 | 0.0585 | 0.0521 | 0.0087 | 0.0559 | 0.0687 | 0.0627
2 | MGESLFKGPRDYNPISSSICHLTNESDGHTTSLYGIGFGPFIITNKHLFRRNNGTLVVQSLHGVFKVKDTTTLQQHLVDGRDMIIIRMPKDFPPFPQKTKFREPQREERICLVTTNFQTKSMSSMVSDTSCTFPSGDGIFWKHWIQTKDGQCGSPLVSTRDGFIVGIHSASNFTNTNNYFTSVPKNFMELLTNQEAQQWVSGWRLNADSVLWGGHKVFMVKPEEPFQPVKEATQL [L99T] | 0.0782 | – | – | – | – | – | 0.0864 | – | – | 0.0642
3 | MGESLFKGPRDYNPISSSICHLTNESDGHTTSLYGIGFGPFIITNKHLFRRNNGTLVVQSLHGVFKVKDTTTLQQHLVDGRDMIIIRMPKDFPPFPQKLKFREPVREERICLVTTNFQTKSMSSMVSDTSCTFPSGDGIFWKHWIQTKDGQCGSPLVSTRDGFIVGIHSASNFTNTNNYFTSVPKNFMELLTNQEAQQWVSGWRLNADSVLWGGHKVFMVKPEEPFQPVKEATQL [Q105V] | 0.0909 | 0.0721 | 0.0857 | – | 0.0733 | 0.0568 | 0.0709 | – | – | 0.0639
4 | MGESLFKGPRDYNPISSSICHLTNESDGHTTSLYGIGFGPFIITNKHLFRRNNGTLVVQSLHGVFKVKDTTTLQQHLVDGRDMIIIRMPKDFPPFPVKLKFREPQREERICLVTTNFQTKSMSSMVSDTSCTFPSGDGIFWKHWIQTKDGQCGSPLVSTRDGFIVGIHSASNFTNTNNYFTSVPKNFMELLTNQEAQQWVSGWRLNADSVLWGGHKVFMVKPEEPFQPVKEATQL [Q97V] | 0.0505 | – | – | – | – | – | – | – | – | 0.0557
5 | MGESLFKGPRDYNPISSSICHLTNESDGHTTSLYGIGFGPFIITNKHLFRRNNGTLVVQSLHGVFKVKDTTTLQQHLVDGRDMIIIRMPKDFPPFPMKLKFREPQREERICLVTTNFQTKSMSSMVSDTSCTFPSGDGIFWKHWIQTKDGQCGSPLVSTRDGFIVGIHSASNFTNTNNYFTSVPKNFMELLTNQEAQQWVSGWRLNADSVLWGGHKVFMVKPEEPFQPVKEATQL [Q97M] | 0.0889 | – | 0.058 | 0.0688 | – | 0.0701 | – | – | – | 0.0704
6 | MGESLFKGPRDYNPISSSICHLTNESDGHTTSLYGIGFGPFIITNKHLFRRNNGTLVVQSLHGVFKVKDTTTLQQHLVDGRDMIIIRMPKDQPPFPQKLKFREPQREERICLVTTNFQTKSMSSMVSDTSCTFPSGDGIFWKHWIQTKDGQCGSPLVSTRDGFIVGIHSASNFTNTNNYFTSVPKNFMELLTNQEAQQWVSGWRLNADSVLWGGHKVFMVKPEEPFQPVKEATQL [F92Q] | 0.0883 | 0.0632 | – | 0.0619 | 0.0575 | 0.0871 | – | 0.0839 | 0.0576 | 0.0665
7 | MGESLFKGPRDYNPISSSICHLTNESDGHTTSLYGIGFGPFIITNKHLFRRNNGTLVVQSLHGVFKVKDTTTLQQHLVDGRDMIIIRMPKDMPPFPQKLKFREPQREERICLVTTNFQTKSMSSMVSDTSCTFPSGDGIFWKHWIQTKDGQCGSPLVSTRDGFIVGIHSASNFTNTNNYFTSVPKNFMELLTNQEAQQWVSGWRLNADSVLWGGHKVFMVKPEEPFQPVKEATQL [F92M] | 0.0849 | 0.0738 | 0.0654 | 0.0549 | 0.0619 | 0.061 | 0.0577 | – | 0.0627 | 0.0617
8 | MGESLFKGPRDYNPISSSICHLTNESDGHTTSLYGIGFGPFIITNKHLFRRNNGTLVVQSLHGVFKVKDTTTLQQHLVDGRDMIIIRMPKDSPPFPQKLKFREPQREERICLVTTNFQTKSMSSMVSDTSCTFPSGDGIFWKHWIQTKDGQCGSPLVSTRDGFIVGIHSASNFTNTNNYFTSVPKNFMELLTNQEAQQWVSGWRLNADSVLWGGHKVFMVKPEEPFQPVKEATQL [F92S] | 0.0763 | – | – | – | 0.0561 | – | – | 0.097 | 0.0659 | 0.102
9 | MGESLFKGPRDYNPISSSICHLTNESDGHTTSLYGIGFGPFIITNKHLFRRNNGTLVVQSLHGVFKVKDTTTLQQHLVDGRDMIIIRMPKDFPPEPQKLKFREPQREERICLVTTNFQTKSMSSMVSDTSCTFPSGDGIFWKHWIQTKDGQCGSPLVSTRDGFIVGIHSASNFTNTNNYFTSVPKNFMELLTNQEAQQWVSGWRLNADSVLWGGHKVFMVKPEEPFQPVKEATQL [F95E] | 0.0434 | 0.0416 | 0.0533 | 0.0559 | 0.0584 | 0.0499 | 0.0381 | 0.0569 | 0.0297 | 0.0608

Same assay, conditions: temperature: 34 °C; time window: 0-4 h after rhamnose induction

Row | Variant | area with substrate VNLYFQS | area with substrate YNLYFQS | area with substrate WNLYFQS | area with substrate FNLYFQS | area with substrate INLYFQS | area with substrate MNLYFQS
10 | MGESLFKGPRDYNPISSSICHLTNESDGHTTSLYGIGFGPFIITNKHLFRRNNGTLVVQSLHGVFKVKDTTTLQQHLVDGRDMIIIRMPKDFPPFPQKLPFREPQREERICLVTTNFQTKSMSSMVSDTSCTFPSGDGIFWKHWIQTKDGQCGSPLVSTRDGFIVGIHSASNFTNTNNYFTSVPKNFMELLTNQEAQQWVSGWRLNADSVLWGGHKVFMVKPEEPFQPVKEATQL [K100P] | 0.08 | 0.0614 | – | – | – | –
11 | MGESLFKGPRDYNPISSSICHLTNESDGHTTSLYGIGFGPFIITNKHLFRRNNGTLVVQSLHGVFKVKDTTTLQQHLVDGRDMIIIRMPKDFPPFPQKLKFREPVREERICLVTTNFQTKSMSSMVSDTSCTFPSGDGIFWKHWIQTKDGQCGSPLVSTRDGFIVGIHSASNFTNTNNYFTSVPKNFMELLTNQEAQQWVSGWRLNADSVLWGGHKVFMVKPEEPFQPVKEATQL [Q105V] | 0.0894 | – | 0.0584 | – | – | –
12 | MGESLFKGPRDYNPISSSICHLTNESDGHTTSLYGIGFGPFIITNKHLFRRNNGTLVVQSLHGVFKVKDTTTLQQHLVDGRDMIIIRMPKDFPPFPMKLKFREPQREERICLVTTNFQTKSMSSMVSDTSCTFPSGDGIFWKHWIQTKDGQCGSPLVSTRDGFIVGIHSASNFTNTNNYFTSVPKNFMELLTNQEAQQWVSGWRLNADSVLWGGHKVFMVKPEEPFQPVKEATQL [Q97M] | 0.0601 | 0.0218 | 0.0581 | 0.0614 | 0.0704 | 0.0515
13 | MGESLFKGPRDYNPISSSICHLTNESDGHTTSLYGIGFGPFIITNKHLFRRNNGTLVVQSLHGVFKVKDTTTLQQHLVDGRDMIIIRMPKDQPPFPQKLKFREPQREERICLVTTNFQTKSMSSMVSDTSCTFPSGDGIFWKHWIQTKDGQCGSPLVSTRDGFIVGIHSASNFTNTNNYFTSVPKNFMELLTNQEAQQWVSGWRLNADSVLWGGHKVFMVKPEEPFQPVKEATQL [F92Q] | 0.05 | 0.0723 | 0.0211 | – | 0.0632 | 0.0587
14 | MGESLFKGPRDYNPISSSICHLTNESDGHTTSLYGIGFGPFIITNKHLFRRNNGTLVVQSLHGVFKVKDTTTLQQHLVDGRDMIIIRMPKDMPPFPQKLKFREPQREERICLVTTNFQTKSMSSMVSDTSCTFPSGDGIFWKHWIQTKDGQCGSPLVSTRDGFIVGIHSASNFTNTNNYFTSVPKNFMELLTNQEAQQWVSGWRLNADSVLWGGHKVFMVKPEEPFQPVKEATQL [F92M] | – | 0.0657 | – | 0.0882 | – | –
15 | MGESLFKGPRDYNPISSSICHLTNESDGHTTSLYGIGFGPFIITNKHLFRRNNGTLVVQSLHGVFKVKDTTTLQQHLVDGRDMIIIRMPKDSPPFPQKLKFREPQREERICLVTTNFQTKSMSSMVSDTSCTFPSGDGIFWKHWIQTKDGQCGSPLVSTRDGFIVGIHSASNFTNTNNYFTSVPKNFMELLTNQEAQQWVSGWRLNADSVLWGGHKVFMVKPEEPFQPVKEATQL [F92S] | – | – | – | 0.0629 | – | 0.0697
16 | MGESLFKGPRDYNPISSSICHLTNESDGHTTSLYGIGFGPFIITNKHLFRRNNGTLVVQSLHGVFKVKDTTTLQQHLVDGRDMIIIRMPKDFPPEPQKLKFREPQREERICLVTTNFQTKSMSSMVSDTSCTFPSGDGIFWKHWIQTKDGQCGSPLVSTRDGFIVGIHSASNFTNTNNYFTSVPKNFMELLTNQEAQQWVSGWRLNADSVLWGGHKVFMVKPEEPFQPVKEATQL [F95E] | 0.0568 | – | 0.0469 | 0.0587 | – | 0.0402
